Measurements reported in ChEMBL document CHEMBL4888484, “Replenishing the malaria drug discovery pipeline: Screening and hit evaluation of the MMV Hit Generation Library 1 (HGL1) against asexual blood stage Plasmodium falciparum ,using a nano luciferase reporter read-out” (2022).
In all, about 150,000 compounds went through this assay and about 540 (0.36%) showed an effect of 50% or more. The list shows a part of the results.

The compounds below were run on Plasmodium falciparum (assay: Primary screen in NF54 nanoGlo assay, in single point, at 2uM, 72h; a lower Z score goes with more inhibition). Settings: timepoint 72 hour.
Assay type: functional, Erythrocyte

Compound	% Inhibition [%]	Z score
Cc1noc(CN(C)C(=O)[C@@H]2CC[C@H](NC(=O)c3cc(C)oc3C)C2)n1	-2	0.3
CCCC(=O)NCCNc1cc(-n2ccc(C)n2)ncn1	3	-0.44
Cn1nc(-c2ccncc2)cc1CNC(=O)c1ccsc1	-17	2.22
O=C(Nc1cccc2ccccc12)c1ccc2ncsc2c1	-7	1.22
COc1ncccc1CN(C)S(=O)(=O)N(C)C	-3	0.4
O=C(Nc1cnn([C@H]2CCOC2)c1)c1ccccn1	16	-2.09
CN(C)S(=O)(=O)Nc1cccc(Br)c1	-3	0.39
COCC(=O)Nc1cc(C(=O)NCCc2cccs2)c2c(c1)ncn2CCc1ccccc1	-10	1.41
N#Cc1nc(N2CCC[C@H](CN3CCOCC3)C2)ccc1Cl	-2	0.23
CCc1cc(N2CC(O)(c3cnnn3C)C2)ncn1	-4	0.67
Cc1ccc(OCCN2CCC3(CC2)[C@H](O)C[C@@H]3OCCO)cc1C	-14	2.34
CCCn1nc(COc2cccc(OC)c2)nc1C1(CO)CC1	-19	2.79
COCCn1nnc2ccc(NC(=O)C3CCCCC3)cc2c1=O	-3	0.36
CN1CC[C@H](N(C)c2cc(C#N)ccn2)C1=O	-1	0.13
Cc1csc([C@@H](NC(=O)Cc2cncc(O)c2)C(F)(F)F)n1	1	-0.11
C[C@@H](c1cccc(Br)c1)S(=O)(=O)CCCC#N	2	-0.24
O=S1(=O)CC[C@H](Cc2nc(-c3ccccn3)nn2-c2ccccc2)C1	7	-1.29
CCn1c2ccccc2c2nnc(N3CCN(c4ccc(F)cc4)CC3)nc21	-6	1.15
C[C@@H](c1nnc(Nc2ccn(Cc3ccccc3Cl)n2)s1)n1cc(Br)cn1	-5	0.67
O=C(c1ccccn1)N1CCN(Cc2ccncc2)[C@@H]2CS(=O)(=O)C[C@@H]21	-7	0.76
COc1ccc(CNC(=O)N2CCC(Cc3ccccc3F)CC2)c(OC)c1	-10	1.75
CC(C)OCCC(=O)N1CC2(CCC2)[C@H]1c1ccccc1	-3	0.62

Compound	% Inhibition [%]	Z score
Cc1cc(S(=O)(=O)N2C[C@H](C(C)C)[C@@H](N(C)C)C2)c(C)s1	1	-0.22
Cn1cc(CNC(=O)Nc2ccc(=O)n(Cc3ccc(Cl)c(Cl)c3)c2)cn1	-3	0.27
COc1cc(CN2CCC(CCC(=O)NCc3ccc(F)cc3)CC2)cc(Cl)c1O	-14	1.27
O=C(C1CCC1)N1Cc2ccccc2C1	-9	1.1
Cc1ccc2c(C(=O)N[C@H]3CCCc4cnccc43)cnn2c1C	-3	0.35
CN1C(=O)[C@@H](c2ccccc2)CC12CCN(C(=O)CNC(N)=O)CC2	-18	1.88
Cc1ccc([C@@H]2Cn3nnc(C(=O)N4CCC(C(=O)Nc5ccc(Cl)c(C)c5)CC4)c3CO2)cc1	-10	0.95
CCCC(CCC)C(=O)Nc1ccc(F)c(Cl)c1	-34	4.04
FC(F)(F)c1ccc(N2CCc3nocc3C2)nc1	-4	0.63
O=C(NC(Cc1ccncc1)[C@H]1C[C@@H](O)C1)c1ncn[nH]1 (stereo not given in full)	17	-2.23
Cc1cc(C)c(S(=O)(=O)N2CCC3(CC2)NCCN=C3NCc2ccccc2C)cc1C	-5	0.61
Cc1cc(C(=O)N[C@H]2CCN(Cc3noc(C4CCCC4)n3)C[C@@H]2O)no1	-6	1.1
Cc1n[nH]c(=O)c(C(=O)N2CCc3cc(-c4ccccc4)oc3C2)c1C	-8	1.5
COc1ccc(C(=O)N2CC(F)(F)C[C@H]2Cn2cc(C(=O)N3CCOCC3)nn2)cn1	-7	1.12
N#Cc1cccc(C(F)(F)F)c1Br	-8	1.03
COCc1nc(N[C@@H]2CCc3ccccc32)cc([C@H]2C[C@H](N)C2)n1	-14	1.68
O=C(O)C1CC[C@@H](c2ccccc2)N1C(=O)Cc1ccccc1OC(F)F (stereo not given in full)	-2	0.18
CCS(=O)(=O)N1CCC[C@H](c2nnc(C(=O)Nc3cccc(Cl)c3)s2)C1	-6	0.92
CC1CC(NC(=O)N2CCCCO2)CC(C)O1 (stereo not given)	-3	0.28
c1ccc2c(CN[C@H]3CCCNC3)cccc2c1	2	-0.3
O=C(C[C@H]1COCCN1CCc1ccccc1)NCc1cccc(Cl)c1	-14	1.32
CN(Cc1ccccc1)c1ncccc1CNc1ncccc1F	-8	0.99

Compound	% Inhibition [%]	Z score
OCC[C@H]1CN(C2CCN(c3ccc(Cl)cc3)CC2)CCN1CCc1ccccc1	-16	2.27
CCN(CC)C(=O)[C@@H]1CCC[C@@H](NC(=O)c2ccc(OC)cc2)CN(C)C(=O)C1	0	0.02
Cc1noc(CN(C)Cc2cc3cc4c(cc3nc2-c2ccc(F)cc2)OCO4)n1	-8	1.55
CO[C@H]1CN(C(=O)c2cc(Br)cn2C)C[C@@H]1O	3	-0.59
COc1cc(C)n(CCNC(=O)c2snnc2C)c(=O)c1	-16	3.04
COCCCN1CCN(C(=O)c2cc(C)nc3cc(Cl)ccc23)CC1	-1	0.16
Cc1nccn1-c1ccnc(C(=O)NCc2cn(C(C)C)nn2)c1	-6	1.18
COCC[C@]1(c2noc(C)n2)CCCN(S(=O)(=O)c2cc(F)ccc2C)C1	-5	0.78
Cc1cc(NC(=O)C(C)S(=O)(=O)C(C)c2ccccc2F)on1 (stereo not given)	11	-1.09
O=C(Cn1nnnc1-c1ccsc1)N1CCC(Cc2ccccc2)CC1	-1	0.13
Cc1nc2c(c(N3CC(C)CC(C(=O)O)C3)n1)CCCC2 (stereo not given)	-2	0.19
COc1cncc(-c2cccc3[nH]ccc23)c1	-10	0.94
O=C(CCN1C(=O)c2ccccc2C1=O)Oc1cccc2cccnc12	-11	1.48
COCC[C@H]1CN(C(=O)Nc2cccc(OCc3ccccc3)c2)CCO1	5	-0.98
Cn1nc(C(=O)N2CCCC[C@H]2c2nc3ccccc3o2)cc1C1CC1	5	-0.61
CCC[C@H]1CN(C(=O)c2ccc(C)[nH]c2=O)C[C@@H]1NS(C)(=O)=O	1	-0.12
Cc1ccc(-c2nc([C@H]3CCC(F)(F)C3)no2)nn1	-7	1.29
CCc1nnc(-c2c(C)c(S(=O)(=O)NCc3ccc(F)cc3F)c(C)n2C)o1	1	-0.09
Cc1cccnc1CN1CCOC[C@H]1c1nc(-c2ccccc2)no1	-4	0.61
O=C(NC1CCCC1)N1CCC(F)(F)CC1	1	-0.29
Cc1ncsc1CN1CC(N(C2CCOCC2)S(C)(=O)=O)C1	-4	0.68
Cc1nc2ncnn2c(O)c1NC(=O)Nc1cccc(F)c1	0	0.05

Compound	% Inhibition [%]	Z score
c1sc2c(c1-c1nc([C@H]3CCOC3)no1)CCCC2	-13	1.82
Cc1nnc(NC(=O)CCNC(=O)C2CCCC2)s1	-7	0.66
CC(C)(CO)NC(=O)Nc1ccccc1OCCc1ccccn1	8	-1.07
COCCN1CCC(c2c(-c3ccccc3)ncn2CCOCCO)CC1	-11	2.16
COCC1(C2CCC2)CN(C(=O)c2ccc(-c3cccc(C)c3)n2C)C1	1	-0.15
CC(C)Oc1cc(CN(C(=O)c2ccn(CC(F)F)n2)C2CC2)ccn1	-12	1.51
O=S(=O)(c1c(F)cccc1Cl)N1CCC(n2cccn2)CC1	10	-0.88
O=C1CNCCN1[C@H]1CCCN(Cc2n[nH]c3ccccc23)C1	-12	1.25
Cc1ccc(-n2nc(C(C)C)c(C(=O)NCc3ccco3)c2C(C)C)cc1	-1	0.16
CN(Cc1ccccc1)C(=O)Cn1nncc1-c1ccccc1	-3	0.44
CN1CCCN(c2ccc(NC(=O)c3cccc(Cl)c3)c(C(=O)O)c2)CC1	39	-5.63
Cc1cccc(NC(=O)[C@H]2CCCN(c3nnc4cccc(C)n34)C2)c1	-10	1.07
O=C(NC[C@@H]1CCC[C@H]1O)c1cnc2c(F)cccc2c1	-12	1.61
COc1ccccc1-c1n[nH]c(C2CC2)c1NC(=O)CC(C)(C)C	-16	1.53
C/C(=C\c1ccccc1)CN1CCC2(CC1)[C@H](O)C[C@@H]2O	0	0.04
CC1(C)CO[C@H](c2ccccc2Cl)CN1CC(=O)N1CCOCC1	-5	0.54
Cc1ccc(-c2nc3nc(-c4ccccc4)c(-c4ccccc4)nn3c2C)cc1	3	-0.47
O=C(NCC1CC1)C(=O)N[C@H]1CCCC[C@@H]1O	-1	0.18
O=C(CN1CCCC1c1nc2ccccc2s1)NC1CCS(=O)(=O)C1 (stereo not given)	-1	0.14
